Values joined by “and” are separate entries in the source; they are usually repeats but may differ in a detail not shown here. Identical values can stand only once. The campaign covered roughly 16,000 compounds. About 40 (0.2%) were called active. Inconclusive results (about 1%) are left out. The call rests on the fitted dose curve; in most records, active means well fitted activation curve with a large enough effect; inconclusive means small, poorly fitted or top-dose-only effect, or another doubt; inactive means no such curve, though single readings can be large or run the other way. The list shows a part of the results.
biological target: Rap guanine nucleotide exchange factor 4 (Homo sapiens) (UniProt Q8WZA2); test: Validation qHTS for agonist of cAMP-regulated guanine nucleotide exchange factor 4 (EPAC2); conditions: EPAC2 Rap1B BODIPY-GDP exchange, fluorescence; activation: active compounds read high;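 further: exchange makes BODIPY-GDP fluorescence drop when released from Rap1B; series mostly up to about 150 µM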
Sequence of UniProt Q8WZA2 (Q8WZA2 whole entry, looked up): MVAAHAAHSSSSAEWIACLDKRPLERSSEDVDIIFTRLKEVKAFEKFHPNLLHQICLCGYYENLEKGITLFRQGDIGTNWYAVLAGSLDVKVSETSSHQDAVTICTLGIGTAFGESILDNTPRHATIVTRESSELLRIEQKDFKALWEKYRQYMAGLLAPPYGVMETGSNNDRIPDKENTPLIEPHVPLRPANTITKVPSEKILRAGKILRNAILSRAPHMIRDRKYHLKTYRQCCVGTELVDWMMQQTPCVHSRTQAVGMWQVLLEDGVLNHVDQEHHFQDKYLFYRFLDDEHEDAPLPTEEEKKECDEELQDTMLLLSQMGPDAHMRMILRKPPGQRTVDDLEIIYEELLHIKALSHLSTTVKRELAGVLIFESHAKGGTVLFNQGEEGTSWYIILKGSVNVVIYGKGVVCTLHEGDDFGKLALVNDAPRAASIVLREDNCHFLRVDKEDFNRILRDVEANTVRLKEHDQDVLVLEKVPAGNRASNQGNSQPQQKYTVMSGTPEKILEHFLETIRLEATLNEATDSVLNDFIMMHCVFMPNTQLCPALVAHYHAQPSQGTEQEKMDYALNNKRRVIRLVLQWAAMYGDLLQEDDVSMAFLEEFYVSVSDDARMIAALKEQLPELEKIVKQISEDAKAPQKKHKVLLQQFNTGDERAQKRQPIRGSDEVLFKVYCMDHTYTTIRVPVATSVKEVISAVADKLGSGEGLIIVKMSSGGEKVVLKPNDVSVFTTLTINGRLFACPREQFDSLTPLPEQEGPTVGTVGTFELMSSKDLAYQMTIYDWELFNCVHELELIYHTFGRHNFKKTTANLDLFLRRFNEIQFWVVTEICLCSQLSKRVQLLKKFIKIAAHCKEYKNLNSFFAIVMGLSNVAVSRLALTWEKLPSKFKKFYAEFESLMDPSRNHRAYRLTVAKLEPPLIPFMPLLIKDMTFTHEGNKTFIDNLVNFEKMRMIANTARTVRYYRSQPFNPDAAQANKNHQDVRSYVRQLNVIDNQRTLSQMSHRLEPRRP
Summary of the method: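 Fluorescent exchange assay: 100 nM EPAC2 with 250 nM RAP1B-BODIPY-GDP and 50 uM GDP; compound added, 5 min at room temperature, then read (ex 480/em 540 nm) every 5 min for 30 min. Normalized to 6.5 mM cAMP agonist control.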
On the % scale 0 is the no-effect control and ±100 the full control effect.

activation, inactive:
CC(C)C(NC(=O)c1ccoc1)c1nnc2n1CCN(Cc1ccc3c(c1)Cc1ccccc1-3)CC2 (stereo not given) -7.49%, Clc1ccc(N2CCN(Cc3c[nH]c4ncccc34)CC2)cc1 -11.8% and 1.94% and -29.9%, Cc1nc(-c2ccc(OCC(C)C)c(C#N)c2)sc1C(=O)O -11%, O=c1ccn([C@@H]2O[C@H](COP(=O)(O)OP(=O)(O)OP(=O)(O)O)[C@@H](O)[C@H]2O)c(=O)[nH]1 0.779%, O=C(c1cnccn1)N1CCC2(CC1)CCN(c1ccccc1)CC2 -11%, COc1ccc2cc([S+]([O-])Cc3ncc(C)c(OC)c3C)nc2c1 -20.8%, COc1ccc(C(=O)N2CCC3(CCCN(c4ncccn4)C3)CC2)cc1 -2.15%, C[C@@H](O)[C@H]1C(=O)N2C(C(=O)[O-])=C(SC3Cn4cnc[n+]4C3)[C@H](C)[C@H]12 (stereo not given in full) -27.1%, CCNc1ncc2nc(C)c(=O)n(-c3ccc(OC)cc3)c2n1 -17.7%, COc1cccc(Nc2ncc3nc(C)c(=O)n(C4CC4)c3n2)c1 0.874%, O=S(=O)(c1ccccc1)N1CCC[C@@]2(CCN(Cc3cc(C(F)(F)F)cc(C(F)(F)F)c3)C2)C1 4.59%, CSc1nc(N)c2ncn([C@@H]3O[C@H](COP(=O)(O)OP(=O)(O)O)C(O)[C@H]3O)c2n1 (stereo not given in full) 9.85%, O=S(=O)([O][Al])OC[C@H]1O[C@@](COS(=O)(=O)[O][Al])(O[C@H]2O[C@H](COS(=O)(=O)[O][Al])[C@@H](OS(=O)(=O)[O][Al])[C@H](OS(=O)(=O)[O][Al])[C@H]2OS(=O)(=O)[O][Al])[C@@H](OS(=O)(=O)[O][Al])[C@@H]1OS(=O)(=O)[O][Al] 6.5%, COc1cccc(CN2CCC(n3cc(C(=O)N4CCCCC4)nn3)CC2)c1OC 7.09%, COc1ccc(-c2nc3cnc(N4CCNCC4)nc3n(Cc3ccc(F)cc3)c2=O)cc1 -10.9%, COc1cccc(-c2ccc3ncnc(NCCc4c[nH]c5ccc(OC)cc45)c3c2)c1 18.9%, CC(C(=O)O)c1ccc2c(c1)CC(=O)c1ccccc1S2 (stereo not given) -16.2%, Oc1cc2c(cc1O)[C@@H]1c3ccc(O)c(O)c3OC[C@]1(O)C2 -15.4%, O=C1CC(CC(=O)N2CC3CCCC2C3)(c2cccc(F)c2)C(=O)N1Cc1cccnc1 (stereo not given) -20.9%, CN(C)c1ccc(C(=C2C=CC(=[N+](C)C)C=C2)c2ccc(N(C)C)cc2)cc1 17.6% and 12%, O=C(NCCc1nnc2n1CCN(Cc1ccsc1)CC2)c1ccc(F)cc1 -0.665%, CC(=O)NCCNc1ncnc2ccc(-c3ccccc3C)cc12 -2.6%, CCC(=O)c1ccc2c(c1)N(CCCN1CCN(CCO)CC1)c1ccccc1S2 8.15%, COc1ncc2ncc(=O)n(CCC#N)c2n1 -7.28%, COc1ccc(CC2c3cc(OC)c(OC)cc3CC[N+]2(C)CCC(=O)OCCCCCOC(=O)CC[N+]2(C)CCc3cc(OC)c(OC)cc3C2Cc2ccc(OC)c(OC)c2)cc1OC (stereo not given) 0.0972% and -5.05%, CC(=O)[C@H]1CC[C@H]2[C@@H]3CC=C4C[C@@H](O)CC[C@]4(C)[C@H]3CC[C@]12C 2.56%, CCC1C(=O)NCCN1Cc1ccc2c(c1)CN(Cc1cccc(OC)c1OC)CCO2 (stereo not given) 3.24%, O=C(O)CCCC/C=C(\c1ccccc1)c1cccnc1 -30.1%, CC[C@]1(c2ncc[nH]2)Cc2ccccc2O1 -12.2%, COc1ccc(C(=O)NCC2Cc3cccc(-c4cncnc4)c3O2)c(OC)c1OC (stereo not given) 2.02%, O=C(O)CCC/C=C\C[C@@H]1[C@@H](/C=C/[C@@H](O)COc2cccc(Cl)c2)[C@H](O)C[C@@H]1O -2.11% and 2.91%, c1ccc(Nc2ncnc3ccc(-c4cccnc4)cc23)cc1 -16.9%, O=c1c(-c2cc(O)c(O)c(O)c2)coc2cc(O)c(O)c(O)c12 -24.5%, N#Cc1cccc(-c2nc3cnc(N4CCOCC4)nc3n(C3CC3)c2=O)c1 -7.74%, NCCCNCCSP(=O)(O)O -2.18% and -17.3%, CC[C@@H](C(=O)[C@@H](C)[C@@H](O)[C@H](C)CCc1ccc(C)c(O)c1C(=O)O)[C@H]1O[C@](CC)([C@H]2CC[C@](O)(CC)[C@H](C)O2)C[C@@H]1C -17%, CC12CCCC(O)(C1)C1CC(C)(C)C1CC2 (stereo not given) -27.5%, CC(C)(C)c1ccc(C(O)CCCN2CCC(C(O)(c3ccccc3)c3ccccc3)CC2)cc1 (stereo not given) -11.2% and -17% and -12.6%, Cc1cc(=O)oc2c(O)c(O)ccc12 -5.12%, CC(COc1ccccc1)NC(C)C(O)c1ccc(O)cc1 (stereo not given) -1% and -3.85%, C[C@H](NC(=O)OC(C)(C)C)C(=O)c1ccco1 -10.1%, c1ccc(CC[n+]2ccncc2)cc1 -13.6%, c1ccc2nc(C3=NCCN3)ccc2c1 -4.08% and -23.9%, COc1ccc(C(=O)N2CCC3(CC2)CN(C(=O)Nc2cccc(C#N)c2)C3)cc1 -5.99%, C=C[C@@H]1c2cc(C)ccc2N(S(=O)(=O)c2ccc(C)cc2)[C@H](c2ccccc2)C1(C#N)C#N -17.9%, CCCCN1CCCCC1C(=O)Nc1c(C)cccc1C (stereo not given) -4.48%, CCOC(=O)NNc1nncc2ccccc12 -12.3% and 7.36%, Cc1cnc(CNc2ncncc2-c2ccccc2Cl)cn1 -14%, O=C1CC[C@@H](OCc2ccccc2)CCN1CC[C@H](Sc1ccccc1)c1ccccc1 -32.5%, O=C(O)C1(O)CC(O)C(O)C(O)C1 (stereo not given) -2.97%, COCC(=O)N1CCC[C@@]2(CCN(C(=O)Nc3cccc(F)c3)C2)C1 2.31%, Cc1cc(N(C)C)cc(C)c1/C=C/c1cc[n+](C)c2ccccc12 -16.7%, COc1cc(CN2CCCC(n3cc(C(=O)N4CCCCC4)nn3)C2)cc2c1OCO2 (stereo not given) -16.5%, S=c1[nH]c2ccccc2s1 -18.2% and 25.8% and 7.88%, CC(=O)c1c(O)cc(O)cc1O -11.1%, COCC(=O)N1CCC2(CCN(Cc3ccccc3)CC2)CC1 -14.8%, C[C@@H]1C[C@@H]2[C@H]3CCC4=CC(=O)C=C[C@]4(C)[C@]3(F)[C@@H](O)C[C@@]2(C)[C@@]1(O)C(=O)CO -9.48%, COC(=O)Oc1ccccc1C(=O)O -7.56%, COC(=O)N1CCC2(CCCN(Cc3ccc(C#N)cc3)C2)CC1 -6.6%, N#CCCN1CCN(Cc2ccccc2)CCC1=O -4.29%, COC(=O)[C@@H]1CCCN1Cc1ccc2c(c1)CN(Cc1coc3ccccc3c1=O)CCO2 -2.8%, COCC(=O)Nc1cc(C(=O)N2CCN(c3ccc(Cl)cn3)CC2)c2c(c1)nc(C1CCC1)n2C -6.02%, COc1ccccc1C1CN(Cc2c(C)nn(C)c2Cl)Cc2ccccc2O1 (stereo not given) -0.917%, O=C(CN1CCNCC1)NC1CCCCC1 -6.19%, Cc1ccccc1CN1[C@H](C)[C@H](c2ccccc2)OCCS1(=O)=O -26.8%, COc1ccc(-n2c(=O)cnc3cnc(Oc4ccccc4)nc32)cc1 -3.25%, CC(=O)N[C@@H](C=O)[C@@H](O)[C@H](O)[C@H](O)CO -11.2%, CCS(=O)(=O)N1CCC[C@H]2CN3CCc4cc(OC)ccc4[C@@H]3C[C@@H]21 1.88% and 11.8%, O=C(NCCc1ccccc1)[C@@H]1CC=C[C@@H]2CCN(C3CC3)C(=O)[C@@H]21 -1.27%, COc1ccc(NC(=O)N2CCC3(CC2)CCN(C(=O)c2cnccn2)CC3)cc1 -7.18%, CC1(C)C=CC(=O)[C@]2(C)C1CC(=O)[C@]1(C)C2CC[C@@]2(C)C(c3ccoc3)OC(=O)C3OC321 (stereo not given in full) -3.28%, O=C(c1csnn1)N1CCC2(CCN(Cc3ccccc3)CC2)CC1 -5.47%, O=C(c1cnccn1)N1CCC2(CCCN(Cc3ccccc3)C2)CC1 -10.2%, O=c1cnc2cnc(OCc3ccccc3)nc2n1Cc1ccc(F)cc1 -3.32%, CN(C)c1ccc(/C=C/c2ccnc3c(O)ccc(O)c23)cc1 -13.4%, O=C1C(=O)c2ccccc2C(O)=C1C1CCC(c2ccc(Cl)cc2)CC1 (stereo not given) -13.6% and -14.2%, NC(Cc1c[nH]c2ccccc12)C(=O)O (stereo not given) 2.37%, O=S(=O)(/C=C/c1ccccc1)N1CCC(n2c(C3CCCO3)nc3cccnc32)CC1 (stereo not given) -0.911%, COCCN1CCN(C(=O)c2cnn(-c3nccc(-c4cc5ccccc5o4)n3)c2C2CC2)CC1 -6.75%, CC(C)=CCC[C@@](C)(O)[C@H]1CC=C(C)CC1 -19%
